Values belong to the binder of their own block, whether it stands above or below them.
Molecular target: human cMET (MET, c-Met, HGF receptor) on cells (human) (UniProt P08581)
Assay: flow cytometry (FACS) binding to EBC-1 cells expressing human cMET; apparent Kd printed beside the legend

Chain of UniProt P08581 (P08581 25-1390): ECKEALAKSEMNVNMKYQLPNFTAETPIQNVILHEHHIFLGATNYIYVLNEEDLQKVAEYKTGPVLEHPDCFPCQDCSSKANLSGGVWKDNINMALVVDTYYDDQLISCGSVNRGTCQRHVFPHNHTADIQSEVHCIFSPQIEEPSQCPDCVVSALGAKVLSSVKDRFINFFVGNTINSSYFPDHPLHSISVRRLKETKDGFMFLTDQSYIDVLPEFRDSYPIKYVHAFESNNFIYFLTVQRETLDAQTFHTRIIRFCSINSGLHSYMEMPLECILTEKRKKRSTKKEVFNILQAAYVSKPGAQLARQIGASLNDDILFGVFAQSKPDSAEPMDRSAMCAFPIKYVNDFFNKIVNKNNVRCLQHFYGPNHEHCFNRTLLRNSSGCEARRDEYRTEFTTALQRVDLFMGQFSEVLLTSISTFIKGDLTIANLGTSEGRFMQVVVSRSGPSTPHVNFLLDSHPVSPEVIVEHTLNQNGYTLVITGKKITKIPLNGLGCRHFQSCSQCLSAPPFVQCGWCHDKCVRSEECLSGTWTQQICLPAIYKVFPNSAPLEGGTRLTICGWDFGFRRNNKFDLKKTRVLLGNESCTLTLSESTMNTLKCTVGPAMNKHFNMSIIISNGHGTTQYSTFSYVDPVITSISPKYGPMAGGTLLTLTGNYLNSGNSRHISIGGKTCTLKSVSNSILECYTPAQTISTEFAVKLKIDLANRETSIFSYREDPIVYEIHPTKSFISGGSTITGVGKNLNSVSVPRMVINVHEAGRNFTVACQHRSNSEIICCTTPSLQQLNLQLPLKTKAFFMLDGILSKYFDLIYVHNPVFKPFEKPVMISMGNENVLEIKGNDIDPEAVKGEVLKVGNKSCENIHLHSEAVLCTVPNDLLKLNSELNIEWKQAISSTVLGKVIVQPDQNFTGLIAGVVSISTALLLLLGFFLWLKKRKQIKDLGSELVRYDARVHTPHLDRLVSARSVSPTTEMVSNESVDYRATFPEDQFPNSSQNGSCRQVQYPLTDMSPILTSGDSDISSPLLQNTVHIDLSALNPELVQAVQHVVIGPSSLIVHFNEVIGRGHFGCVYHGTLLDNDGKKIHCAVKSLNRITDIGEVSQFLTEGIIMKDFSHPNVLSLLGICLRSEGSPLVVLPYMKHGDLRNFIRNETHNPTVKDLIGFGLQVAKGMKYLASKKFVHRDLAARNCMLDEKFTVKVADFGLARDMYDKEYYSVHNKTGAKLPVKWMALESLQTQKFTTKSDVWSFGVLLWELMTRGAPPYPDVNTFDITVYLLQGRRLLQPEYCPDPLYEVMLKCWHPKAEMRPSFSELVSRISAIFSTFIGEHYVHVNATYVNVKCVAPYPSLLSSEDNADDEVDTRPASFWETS

- Kd: 440 pM
B1: hucMet27Gv1.3-sSPDB-DM4 (antibody, human IgG1, kappa)
light chain: EIVLTQSPATLSLSPGERATLSCRASESVDSYGNSFIHWYQQKPGQAPRLLIYRASNLESGIPARFSGSGSGTDFTLTISSLEPEDFAVYYCQQSNEEPLTFGQGTKVELKRTVAAPSVFIFPPSDEQLKSGTASVVCLLNNFYPREAKVQWKVDNALQSGNSQESVTEQDSKDSTYSLSSTLTLSKADYEKHKVYACEVTHQGLSSPVTKSFNRGEC
heavy chain: EVQLVESGGGLVQPGGSLRLSCAASGFTFSSYDMSWVRQAPGKGLEWVATINSNGVSIYYPDSVKGRFTISRDNAKNSLYLQMNSLRAEDTAVYYCAREEITTEMDYWGQGTLVTVSS[… human IgG1 constant region …]
modifications: lysines linked to sSPDB-DM4, on average 3-4 DM4 per antibody

- Kd: 450 pM
B2: hucMet27Gv1.3Hinge28-sSPDB-DM4 (antibody)
light chain: B1 light chain
heavy chain: EVQLVESGGGLVQPGGSLRLSCAASGFTFSSYDMSWVRQAPGKGLEWVATINSNGVSIYYPDSVKGRFTISRDNAKNSLYLQMNSLRAEDTAVYYCAREEITTEMDYWGQGTLVTVSSASTKGPSVFPLAPSSKSTSGGTAALGCLVKDYFPEPVTVSWNSGALTSGVHTFPAVLQSSGLYSLSSVVTVPSSSLGTQTYICNVNHKPSNTKVDKRVEPKSCDCH[… human IgG1 Fc …]
modifications: sSPDB-DM4 conjugate; preparation of this one not described

Source: patent US20180230218A1
